Assay results from patent US5110904A (Abbott Laboratories, priority 1990, dated 1992).
For some of these results: At least one peptide structure holds a part that was inferred or is arguable (an end, a ring closure or a residue). For some of these results: At least one structure is not confirmed: it was looked up by name or label, or the drawing left a doubt. Non-standard residues stand in square brackets, D forms with d. Residues, ends and D or L forms follow the SMILES beside them. *: point of attachment. dPhe(4-Cl) = N[C@H](Cc1ccc(Cl)cc1)C(=O)O; 1Nal = N[C@@H](Cc1cccc2ccccc12)C(=O)O; d1Nal = N[C@H](Cc1cccc2ccccc12)C(=O)O; d2Nal = N[C@H](Cc1ccc2ccccc2c1)C(=O)O; Lys(iPr) = CC(C)NCCCC[C@H](N)C(=O)O; NMeY = CN[C@@H](Cc1ccc(O)cc1)C(=O)O; dBta = N[C@H](Cc1csc2ccccc12)C(=O)O; Pyrazinecarbonyl = O=C(c1cnccn1)*; d3Pal = N[C@H](Cc1cccnc1)C(=O)O; Cha = N[C@@H](CC1CCCCC1)C(=O)O; d2Thi = N[C@H](Cc1cccs1)C(=O)O; NMeL = CN[C@@H](CC(C)C)C(=O)O; Nicotinoyl = O=C(c1cccnc1)*; Sar = CNCC(=O)O; For = O=C*

Columns and labels:
LHRH receptors = target: T1, LHRH receptors (Rattus norvegicus, UniProt P30969); assay: Radioligand receptor binding assay, rat pituitary membranes; details: radioiodinated [D-Leu6-des Gly10]-LHRH ethyl amide 50 pM, 2 hours at 4° C.
T1 sequence (P30969 1-327): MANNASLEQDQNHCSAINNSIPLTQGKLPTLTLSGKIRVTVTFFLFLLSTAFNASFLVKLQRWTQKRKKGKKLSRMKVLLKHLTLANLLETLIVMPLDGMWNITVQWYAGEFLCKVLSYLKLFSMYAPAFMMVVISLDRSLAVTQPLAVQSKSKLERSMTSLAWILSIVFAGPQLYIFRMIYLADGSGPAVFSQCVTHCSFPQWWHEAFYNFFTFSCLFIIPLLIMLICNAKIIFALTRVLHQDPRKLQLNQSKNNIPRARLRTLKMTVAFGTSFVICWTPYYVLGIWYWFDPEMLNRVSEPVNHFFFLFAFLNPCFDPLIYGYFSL
Protocol: The radioligand (50 pM), receptors, and compounds to be tested are coincubated for 2 hours at 4° C. Bound ligand is separated from free ligand via centrifugation and aspiration.

[1] = tested on: LH concentration in the blood; assay: In vivo LH inhibition in male castrate rats; set-up: species or system rat; details: AUC of log(LHt/LHi) over 24 hours, 30 ug/kg subcutaneous bolus
Protocol: The compound to be tested is administered at 30 μg/kg subcutaneously by bolus injection to male castrate rats and blood samples are collected periodically over 24 hours. The AUC (area under the curve) of the LH supression data as a function of time is calculated using the formula log (LHt /LHi) wherein LHt is the LH concentration in the blood at time t and LHi is the initial baseline value for the concentration of LH in the blood. The AUC values are negative numbers.

SMILES | Receptor Binding pkI (LHRH receptors) | AUC (24 hr. after 30 ug/kg) [1]
CC(=O)N[C@H](Cc1ccc2ccccc2c1)C(=O)N[C@H](Cc1ccc(Cl)cc1)C(=O)N[C@H](Cc1cccnc1)C(=O)N[C@@H](CO)C(=O)N(C)[C@@H](Cc1ccc(O)cc1)C(=O)N[C@H](CCCCNC(=O)c1cnccn1)C(=O)N[C@@H](CC(C)C)C(=O)N[C@@H](CCCCNC(C)C)C(=O)N1CCC[C@H]1C(=O)N[C@H](C)C(N)=O [Ex. 62, N-Ac-D-2-Nal-D-4-Cl-Phe-D-3-Pal-Ser-N-Me-Tyr-D-Lys(N-epsilon-2-pyrazincarbonyl)-Leu-Lys(N-epsilon-isopropyl)-Pro-D-AlaNH2] (Ac-[d2Nal][dPhe(4-Cl)][d3Pal]S[NMeY][dK](Pyrazinecarbonyl)L[Lys(iPr)]P[dA]-NH2) | 10.36 | 
CC(=O)N[C@H](Cc1ccc(Cl)cc1)C(=O)N[C@H](Cc1ccc(Cl)cc1)C(=O)N[C@H](Cc1csc2ccccc12)C(=O)N[C@@H](CO)C(=O)N(C)[C@@H](Cc1ccc(O)cc1)C(=O)N[C@H](CCCCN)C(=O)N[C@@H](CC(C)C)C(=O)N[C@@H](CCCNC(=N)N)C(=O)N1CCC[C@H]1C(=O)N[C@H](C)C(N)=O [Ex. 54, N-Ac-D-4-Cl-Phe-D-4-Cl-Phe-D-3-Bal-Ser-N-Me-Tyr-D-Lys-Leu-Arg-Pro-D-AlaNH2] (Ac-[dPhe(4-Cl)][dPhe(4-Cl)][dBta]S[NMeY][dK]LRP[dA]-NH2) |  | -963
CC(=O)N[C@H](Cc1ccc(Cl)cc1)C(=O)N[C@H](Cc1ccc(Cl)cc1)C(=O)N[C@H](Cc1cccs1)C(=O)N[C@@H](CO)C(=O)N(C)[C@@H](Cc1ccc(O)cc1)C(=O)N[C@H](CCCCN)C(=O)N[C@@H](CC(C)C)C(=O)N[C@@H](CCCNC(=N)N)C(=O)N1CCC[C@H]1C(=O)N[C@H](C)C(N)=O [Ex. 39, N-Ac-D-4-Cl-Phe-D-4-Cl-Phe-D-2-Thia-Ser-N-Me-Tyr-D-Lys-Leu-Arg-Pro-D-AlaNH2] (Ac-[dPhe(4-Cl)][dPhe(4-Cl)][d2Thi]S[NMeY][dK]LRP[dA]-NH2) |  | -656
CC(=O)N(C)CC(=O)N[C@H](Cc1ccc(Cl)cc1)C(=O)N[C@H](Cc1cccc2ccccc12)C(=O)N[C@@H](CO)C(=O)N(C)[C@@H](Cc1ccc(O)cc1)C(=O)N[C@H](CCCCN)C(=O)N[C@@H](CC(C)C)C(=O)N[C@@H](CCCNC(=N)N)C(=O)N1CCC[C@H]1C(=O)N[C@H](C)C(N)=O [Ex. 48, N-Ac-Sar-D-4-Cl-Phe-D-1-Nal-Ser-N-Me-Tyr-D-Lys-Leu-Arg-Pro-D-AlaNH2] (Ac-[Sar][dPhe(4-Cl)][d1Nal]S[NMeY][dK]LRP[dA]-NH2) |  | -916
CC(=O)N(C)CC(=O)N[C@H](Cc1ccc(Cl)cc1)C(=O)N[C@@H](Cc1cccc2ccccc12)C(=O)N[C@@H](CO)C(=O)N(C)[C@@H](Cc1ccc(O)cc1)C(=O)N[C@H](CCCCN)C(=O)N[C@@H](CC(C)C)C(=O)N[C@@H](CCCNC(=N)N)C(=O)N1CCC[C@H]1C(=O)N[C@H](C)C(N)=O [Ex. 52, N-Ac-Sar-D-4-Cl-Phe-1-Nal-Ser-N-Me-Tyr-D-Lys-Leu-Arg-Pro-D-AlaNH4] (Ac-[Sar][dPhe(4-Cl)][1Nal]S[NMeY][dK]LRP[dA]-NH2) |  | -1483
CC(=O)N[C@H](Cc1ccc(Cl)cc1)C(=O)N[C@H](Cc1ccc(Cl)cc1)C(=O)N[C@H](Cc1cccc2ccccc12)C(=O)N[C@@H](CO)C(=O)N(C)[C@@H](Cc1ccc(O)cc1)C(=O)N[C@H](CCCCN)C(=O)N[C@@H](CC(C)C)C(=O)N[C@@H](CCCNC(=N)N)C(=O)N1CCC[C@H]1C(=O)N[C@H](C)C(N)=O [Ex. 46, N-Ac-D-4-Cl-Phe-D-4-Cl-Phe-D-1-Nal-Ser-N-Me-Tyr-D-Lys-Leu-Arg-Pro-D-AlaNH2] (Ac-[dPhe(4-Cl)][dPhe(4-Cl)][d1Nal]S[NMeY][dK]LRP[dA]-NH2) | 10.56 | 
CC(=O)N[C@H](Cc1ccc(Cl)cc1)C(=O)N[C@H](Cc1ccc(Cl)cc1)C(=O)N[C@H](Cc1cn(C=O)c2ccccc12)C(=O)N[C@@H](CO)C(=O)N(C)[C@@H](Cc1ccc(O)cc1)C(=O)N[C@H](CCCCN)C(=O)N[C@@H](CC(C)C)C(=O)N[C@@H](CCCNC(=N)N)C(=O)N1CCC[C@H]1C(=O)N[C@H](C)C(N)=O [Ex. 55, N-Ac-D-4-Cl-Phe-D-4-Cl-Phe-D-Trp(formyl)-Ser-N-Me-Tyr-D-Lys-Leu-Arg-Pro-D-AlaNH2] (Ac-[dPhe(4-Cl)][dPhe(4-Cl)][dW](For)S[NMeY][dK]LRP[dA]-NH2) |  | -790
CC(=O)N[C@H](Cc1ccc(Cl)cc1)C(=O)N[C@H](Cc1ccc(Cl)cc1)C(=O)N[C@H](Cc1cccc2ccccc12)C(=O)N[C@@H](CO)C(=O)N(C)[C@@H](Cc1ccc(O)cc1)C(=O)N[C@H](CCCCN)C(=O)N[C@@H](CC1CCCCC1)C(=O)N[C@@H](CCCNC(=N)N)C(=O)N1CCC[C@H]1C(=O)N[C@H](C)C(N)=O [Ex. 47, N-Ac-D-4-Cl-Phe-D-4-Cl-Phe-D-1-Nal-Ser-N-Me-Tyr-D-Lys-Cha-Arg-Pro-D-AlaNH2] (Ac-[dPhe(4-Cl)][dPhe(4-Cl)][d1Nal]S[NMeY][dK][Cha]RP[dA]-NH2) |  | -1200
CC(=O)N[C@H](Cc1ccc(Cl)cc1)C(=O)N[C@H](Cc1ccc(Cl)cc1)C(=O)N[C@H](Cc1cccs1)C(=O)N[C@@H](CO)C(=O)N(C)[C@@H](Cc1ccc(O)cc1)C(=O)N[C@H](CCCCN)C(=O)N(C)[C@@H](CC(C)C)C(=O)N[C@@H](CCCNC(=N)N)C(=O)N1CCC[C@H]1C(=O)N[C@H](C)C(N)=O [Ex. 45, N-Ac-D-4-Cl-Phe-D-4-Cl-Phe-D-2-Thia-Ser-N-Me-Tyr-D-Lys-N-Me-Leu-Arg-Pro-D-AlaNH4] (Ac-[dPhe(4-Cl)][dPhe(4-Cl)][d2Thi]S[NMeY][dK][NMeL]RP[dA]-NH2) |  | -690
CC(=O)N(C)CC(=O)N[C@H](Cc1ccc(Cl)cc1)C(=O)N[C@H](Cc1cccc2ccccc12)C(=O)N[C@@H](CO)C(=O)N(C)[C@@H](Cc1ccc(O)cc1)C(=O)N[C@H](CCCCNC(=O)c1cccnc1)C(=O)N[C@@H](CC(C)C)C(=O)N[C@@H](CCCNC(=N)N)C(=O)N1CCC[C@H]1C(=O)N[C@H](C)C(N)=O [Ex. 51, N-Ac-Sar-D-4-Cl-Phe-D-1-Nal-Ser-N-Me-Tyr-D-Tys(N-epsilon-nicotinyl)-Leu-Arg-Pro-D-AlaNH2] (Ac-[Sar][dPhe(4-Cl)][d1Nal]S[NMeY][dK](Nicotinoyl)LRP[dA]-NH2) |  | -526
